Source: patent publication US9192657B2, “Activated protein C variants with normal cytoprotective activity but reduced anticoagulant activity” (The Scripps Research Institute, dated 2015)

B1: RR229/230AA-APC (enzyme)
chain: not shown
B2: S360A-APC (enzyme)
chain: not shown

Experiments:
Test in all cases: cell-based or functional assay
[1] = target: T1, endothelial protein C receptor (EPCR) on cells (Homo sapiens (Human), UniProt Q9UNN8)
[2] = target: T2, protease activated receptor-1 (PAR-1) (Homo sapiens (Human), UniProt P25116)
[3] = target: T1, endothelial protein C receptor (EPCR) …; remark: listed apart in the source
factor Va = factor Va (human, UniProt P12259)
[4] = target: T2, protease activated receptor-1 (PAR-1); remark: listed apart in the source
[5] = target: T1, endothelial protein C receptor (EPCR) …; remark: listed apart in the source
[6] = target: T2, protease activated receptor-1 (PAR-1); remark: listed apart in the source

| half-maximum inhibition of staurosporine-induced apoptosis (EA.hy926 cells, Apopercentage dye) [1] | half-maximum inhibition of staurosporine-induced apoptosis (Eahy926 cells, Apopercentage staining) [1] | reduction of activated caspase-3-positive endothelial cells after staurosporine [1] | half-maximum inhibition of staurosporine-induced apoptosis (EA.hy926 cells, Apopercentage dye) [2] | half-maximum inhibition of staurosporine-induced apoptosis (Eahy926 cells, Apopercentage staining) [2] | reduction of activated caspase-3-positive endothelial cells after staurosporine [2] | cytoprotective activity (% rwt-APC), from the concentrations for half-maximal inhibition of apoptosis [3] | anticoagulant activity (% rwt-APC), APTT clotting assay in human plasma (factor Va) | cytoprotective activity (% rwt-APC), from the concentrations for half-maximal inhibition of apoptosis [4] | cytoprotective activity (% wt-APC) [5] | cytoprotective activity (% wt-APC) [6] | Binder |
| --- | --- | --- | --- | --- | --- | --- | --- | --- | --- | --- | --- |
| 0.17 nM | 0.27 nM | ~70% | 0.17 nM | 0.27 nM | ~70% | 94 % rwt-APC | 13 % rwt-APC | 94 % rwt-APC | 89 % wt-APC | 89 % wt-APC | B1 |
|  |  |  |  |  |  |  | 23 % rwt-APC |  |  |  | B2 |
